In PubChem BioAssay AID504339 (National Center for Advancing Translational Sciences (NCATS), 2011):
The campaign covered roughly 390,000 compounds. About 17,000 (4.4%) were called active. This list was built around the results that the source calls inconclusive (neither active nor inactive); the mix of calls is not that of the screen. The call rests on the fitted dose curve; in most records, active means well fitted inhibition curve with a large enough effect; inconclusive means small, poorly fitted or top-dose-only effect; inactive means no such curve, though single readings can be large or run the other way. Potencies of inconclusive entries are doubtful fits and often do not repeat.

target: Lysine-specific demethylase 4A (Homo sapiens) (UniProt O75164); test: qHTS Assay for Inhibitors of JMJD2A-Tudor Domain; settings: AlphaScreen JMJD2A-Tudor / H3K4me3 peptide binding; activity change, negative = inhibition: at 114 µM (top of the series); further: nearly all actives have a fitted effect of over 50% in size
On the % scale 0 is the no-effect control and ±100 the full control effect; potency means the concentration at half of the fitted maximal effect; tags describe the fitted curve by direction and shape.

Sequence of UniProt O75164 (O75164 whole entry, looked up, the tested form may be a part): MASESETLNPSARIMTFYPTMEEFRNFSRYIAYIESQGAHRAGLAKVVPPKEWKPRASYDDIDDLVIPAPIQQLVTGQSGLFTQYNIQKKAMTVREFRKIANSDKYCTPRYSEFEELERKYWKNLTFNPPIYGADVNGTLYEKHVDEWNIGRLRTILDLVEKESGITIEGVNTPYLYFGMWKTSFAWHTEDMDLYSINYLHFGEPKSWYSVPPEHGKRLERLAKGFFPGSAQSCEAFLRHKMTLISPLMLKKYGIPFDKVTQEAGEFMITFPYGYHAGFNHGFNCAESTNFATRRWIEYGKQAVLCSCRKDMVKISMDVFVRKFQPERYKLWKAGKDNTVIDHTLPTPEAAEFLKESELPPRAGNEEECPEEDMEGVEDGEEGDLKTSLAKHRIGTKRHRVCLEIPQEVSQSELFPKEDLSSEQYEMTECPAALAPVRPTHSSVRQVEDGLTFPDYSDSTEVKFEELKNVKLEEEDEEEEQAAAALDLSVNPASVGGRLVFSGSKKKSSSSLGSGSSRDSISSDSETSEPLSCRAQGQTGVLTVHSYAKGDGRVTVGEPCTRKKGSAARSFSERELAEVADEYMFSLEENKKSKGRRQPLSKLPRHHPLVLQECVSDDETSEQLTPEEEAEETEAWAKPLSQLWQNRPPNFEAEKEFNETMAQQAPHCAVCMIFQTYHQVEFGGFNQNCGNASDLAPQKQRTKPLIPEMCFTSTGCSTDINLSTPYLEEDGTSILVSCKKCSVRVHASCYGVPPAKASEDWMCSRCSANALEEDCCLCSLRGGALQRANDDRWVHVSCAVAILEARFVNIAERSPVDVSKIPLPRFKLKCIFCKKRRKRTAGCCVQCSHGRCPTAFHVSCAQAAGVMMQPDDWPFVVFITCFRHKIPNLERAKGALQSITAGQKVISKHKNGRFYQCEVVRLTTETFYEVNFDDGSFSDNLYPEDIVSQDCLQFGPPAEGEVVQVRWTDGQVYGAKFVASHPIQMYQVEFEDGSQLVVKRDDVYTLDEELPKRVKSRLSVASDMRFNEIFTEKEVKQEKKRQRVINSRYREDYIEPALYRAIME

Structure (SMILES) | activity change, negative = inhibition | Potency
COc1ccc(NC(=O)Cn2ncc3c(C)n(Cc4cccc(Cl)c4)c(C)c3c2=O)cc1 | inactive: 1.01% | 
Cc1ccc(NC(=O)c2ccc(-n3cncn3)c([N+](=O)[O-])c2)cc1F |  | inconclusive: 89.1 µM [inhibitor, partial curve]
COc1cn(CC(=O)Nc2c(C)cc(C)cc2C)c(CN2CCCCC2)cc1=O | inactive: -16% | 
Cc1nnc(Nc2ccccc2)n(N)c1=O |  | inconclusive: 31.6 µM [inhibitor, partial curve]
COc1ccc(NC(=O)CN2CCN(c3nc(-c4cccc(OC)c4)cs3)CC2)cc1 |  | inconclusive: 44.7 µM [inhibitor, partial curve]
Cc1ccc(NC(=O)CCSc2nc(C)cc(C)n2)cc1 | inactive: 12% | 
COc1cc(/C=C2\CCCc3c2nc2ccccc2c3C(=O)O)cc(OC)c1O |  | inconclusive: 17.8 µM [inhibitor, partial curve, poor fit]
Cc1ccc(C(=O)N/C(=C/c2ccco2)C(=O)Nc2cccc(C)c2)cc1 |  | inconclusive: 0.708 µM [inhibitor, full curve, poor fit]
CCC1(CC)NC(=O)N(CC(=O)Nc2sc3c(c2C(N)=O)CCC3)C1=O |  | inconclusive: 28.2 µM [inhibitor, full curve]
CCNC(=S)N(CCc1cccc(C)c1)Cc1cc2cc(OC)c(OC)cc2[nH]c1=O |  | inconclusive: 31.6 µM [inhibitor, single point]
CC(C)C(=O)N(c1cc2sc(=O)oc2c2ccccc12)S(=O)(=O)c1cccs1 |  | inconclusive: 15.8 µM [inhibitor, partial curve]
Cc1cc(C)n(-c2ccc(C(=O)N3CC(C)OC(C)C3)cc2)n1 (stereo not drawn) |  | inconclusive: 39.8 µM [inhibitor, single point]
COc1ccc(C2=CC(c3ccccc3Cl)n3nc(-c4ccc(C)cc4)nc3N2)cc1 (stereo not drawn) |  | inconclusive: 8.91 µM [inhibitor, full curve]
CCc1nnc(SCC(=O)Nc2ccc(Cl)cc2F)c2cc3occc3n12 | inactive: -15% | 
N=C(N=C(N)N)N1CCc2ccccc21 |  | inconclusive: 31.6 µM [inhibitor, partial curve]
OCCN1CCN(CC(O)COc2ccc(C34CC5CC(CC(C5)C3)C4)cc2)CC1 (stereo not drawn) |  | inconclusive: 28.2 µM [inhibitor, full curve, poor fit]
Cn1c(=O)n(C)c2cc(NS(=O)(=O)c3ccc(C(C)(C)C)cc3)ccc21 | inactive: -4.43% | 
O=C(N/N=C/c1ccc2c(c1)OCO2)/C(=C/c1ccc2c(c1)OCO2)NC(=O)c1ccccc1 | inactive: -12.2% | 
Cc1cc(C)n(-c2nnc(C)n2NS(C)(=O)=O)n1 |  | inconclusive: 44.7 µM [inhibitor, partial curve]
CC(C)N=c1cc2n(-c3ccc(Cl)cc3)c3ccccc3nc-2cc1Nc1ccc(Cl)cc1 |  | active: 7.08 µM
CCCCC(=O)Nc1sc2c(c1C#N)CC(C)(C)OC2 |  | active: 44.7 µM
Cc1cc(C(=O)OCC(=O)Nc2nccs2)c2ccccc2n1 |  | active: 20 µM
O=C(O)COn1c(-c2ccccc2)nc2ccc([N+](=O)[O-])cc21 |  | inconclusive: 79.4 µM [inhibitor, partial curve]
Cc1noc(C)c1S(=O)(=O)Nc1ccc(C(=O)Nc2ccc(C(C)C)cc2)cc1 | inactive: -25.7% | 
CCOC(=O)c1ccc(NC(=O)CC2Nc3cccc4cccc(c34)NC2=O)cc1 (stereo not drawn) |  | inconclusive: 50.1 µM [inhibitor, partial curve, poor fit]

Structure (SMILES) | activity change, negative = inhibition | Potency
COC(=O)CN1C(=O)C(O)(CC(=O)c2ccccc2)c2ccccc21 (stereo not drawn) | inactive: -13.8% | 
S=C(Nc1cccc(Cl)c1)N1CCN(c2ccccn2)CC1 | inactive: -11.8% | 
COc1ccc(N2C(=O)C3CCCN3C2c2cc(OC)c(OC)c(OC)c2)cc1 (stereo not drawn) |  | inconclusive: 56.2 µM [inhibitor, partial curve, poor fit]
CCCCC(=O)Nc1nc(C)c(-c2csc(Nc3cc(OC)ccc3OC)n2)s1 |  | inconclusive: 56.2 µM [inhibitor, partial curve, poor fit]
CC(=O)c1ccc(N=Nc2ccc(N)cc2)cc1 |  | inconclusive: 25.1 µM [inhibitor, full curve]
O=C(O)c1ccccc1C(=O)Nc1n[nH]c(=S)s1 |  | active: 12.6 µM
NC(=O)CC(NC(=O)Cc1ccc(Br)cc1)c1ccc(NCc2ccccn2)c([N+](=O)[O-])c1 (stereo not drawn) |  | inconclusive: 63.1 µM [inhibitor, partial curve]
COc1cccc(NS(=O)(=O)c2ccc3[nH]c4c(c3c2)CCCCCC4)c1 |  | inconclusive: 50.1 µM [inhibitor, partial curve]
O=C(COc1ccc([N+](=O)[O-])cc1)Nc1ccc(N2CCN(C(=O)c3ccco3)CC2)cc1 | inactive: -14.4% | 
O=C(CCCc1nc(-c2ccccc2)no1)NCc1cccnc1 | inactive: -2.96% | 
CC(CN)(NS(=O)(=O)c1ccccc1)c1ccccc1 (stereo not drawn) | inactive: -22.3% | 
Cc1ccc(C(=O)c2nc3c(n2O)CCCC3)cc1 |  | active: 35.5 µM
CCCCC(c1nnnn1C1CCCC1)N1CCN(C2CCCC2)CC1 (stereo not drawn) | inactive: -13.6% | 
c1ccc(CNC2=NCCCC2)cc1 |  | inconclusive: 39.8 µM [inhibitor, full curve, poor fit]
CC(C)(C)c1ccc(C2(C)NC(=O)N(CC(=O)Nc3ccc4c(c3)OCO4)C2=O)cc1 (stereo not drawn) |  | inconclusive: 89.1 µM [inhibitor, single point]
CC1(C)CCC(=NNC(N)=S)CC1 |  | active: 0.708 µM
COc1ccc(CCn2c(=S)[nH]c3cc(C(=O)NCc4ccco4)ccc3c2=O)cc1OC |  | inconclusive: 89.1 µM [inhibitor, single point]
O=C(Cc1ccc(Cl)cc1)Nc1ccc(N2CCCC2)cc1 | inactive: 4.12% | 
COc1ccc(-n2c(C)c(C)c3c(NCCO)ncnc32)cc1 |  | inconclusive: 89.1 µM [inhibitor, partial curve]
CC1=NN(c2ccc(C)c(C)c2)C(=O)/C1=C\C=C\c1ccc([N+](=O)[O-])o1 |  | inconclusive: 6.31 µM [inhibitor, full curve]
Clc1cccc(CN2CCC3CC2c2cc(N4CCCCC4)ccc23)c1 (stereo not drawn) |  | active: 44.7 µM
CSc1nn(Cc2ccccc2C)c(NC(C)=O)c1S(=O)(=O)c1ccc(C)cc1 | inactive: -11.4% | 
Oc1ccccc1/C=N/NC(=S)NC1CC2C=CC1C2 (stereo not drawn) |  | active: 44.7 µM
CCc1nc2oc3ccccc3c(=O)c2c(=O)n1-c1ccc(C)cc1 |  | inconclusive: 50.1 µM [inhibitor, partial curve]
O=C(NCc1n[nH]c(=S)n1-c1cccc(C(F)(F)F)c1)c1ccc(S(=O)(=O)N2CCCCC2)cc1 | inactive: -11.3% | 

Structure (SMILES) | activity change, negative = inhibition | Potency
CC(C)/C(=N\NS(=O)(=O)c1ccc(Br)cc1)c1cccs1 |  | active: 50.1 µM
CC1(c2ccc(OC(F)F)cc2)NC(=O)N(CC(=O)Nc2ccc(Cl)cc2F)C1=O (stereo not drawn) | inactive: -9.79% | 
CCc1ccccc1NC(=O)C1=CC(c2cccs2)=NS(=O)(=O)N1C |  | inconclusive: 79.4 µM [inhibitor, partial curve, poor fit]
CCCCCn1c(=O)[nH]c2cc(C(=O)N3CCN(c4cccc(Cl)c4)CC3)ccc2c1=O | inactive: -2.39% | 
CC(C)(C)C(=O)CSc1nc2ncc(Br)cc2[nH]1 |  | inconclusive: 79.4 µM [inhibitor, partial curve]
O=C(CCc1ccccc1)NNC(=O)COc1ccc(Br)cc1 |  | active: 20 µM
Clc1ccccc1CSc1nnc(-c2cccnc2)n1Cc1ccco1 |  | inconclusive: 89.1 µM [inhibitor, partial curve]
Cc1cn2c(N)c(C=C3C=C(Cl)C(=O)C(Cl)=C3)c(=O)nc2s1 |  | inconclusive: 50.1 µM [inhibitor, partial curve]
O=S1(=O)CCC(N=Nc2c(O)n(Cc3ccccc3)c3ccccc23)C1 (stereo not drawn) |  | inconclusive: 100 µM [inhibitor, single point]
COC(=O)C1CC23C=CCN4CCC5(c6ccccc6NC15C2C)C43 (stereo not drawn) |  | inconclusive: 14.1 µM [inhibitor, single point]
O=C1CC(NCc2ccncc2)C(=O)N1c1ccc(Cl)cc1 (stereo not drawn) |  | inconclusive: 17.8 µM [inhibitor, full curve, poor fit]
COc1cc(C(=S)N2CCOCC2)cc(OC)c1OC(=O)c1cccc(C)c1 |  | inconclusive: 70.8 µM [inhibitor, partial curve]
O=C(N/N=C/c1cccc(Br)c1)c1ccc(Br)cc1 |  | inconclusive: 79.4 µM [inhibitor, partial curve]
COc1ccc(CCN(C)C2CCCN(S(=O)(=O)c3ccccc3F)C2)cc1OC (stereo not drawn) | inactive: -17.4% | 
Cc1[nH]n(-c2ccccc2)c(=O)c1/C=N/NC(=O)c1ccc(O)cc1O |  | active: 22.4 µM
COc1cccc(NC(=O)CCSc2nc(-c3ccco3)cc(C(F)(F)F)n2)c1 | inactive: 6.87% | 
CC(C)Cc1nn2c(=O)cc(COC(=O)c3ccccc3NC(=O)c3cccs3)nc2s1 | inactive: -7.95% | 
CCN1CCc2c(sc(NC(=S)NC(=O)c3ccco3)c2C(N)=O)C1 |  | inconclusive: 50.1 µM [inhibitor, partial curve]
CCc1cc(-c2n[nH]c(=S)n2N)n(C)n1 |  | active: 8.91 µM
CCCCN(CC)C(=S)Nc1ccc2nc(N3CCN(C)CC3)cc(C)c2c1 |  | inconclusive: 50.1 µM [inhibitor, partial curve, poor fit]
CCCCn1nc(C(=O)NCc2ccccc2CN2CCCC2)c2ccccc2c1=O | inactive: -15.2% | 
CN(Cc1ccco1)c1ncnc2ccc(-c3ccccc3Cl)cc12 |  | inconclusive: 100 µM [inhibitor, partial curve]
Cc1nc2c(C(=O)NCc3ccccc3Cl)c[nH]n2c(=O)c1Cl | inactive: -14.3% | 
